Here are results for 175 sequences from paper PMC5515408.

The other results are listed elsewhere or left out. At the low end of the ranking the order means little.

The assay has as its system MYC (p64) + MAX (p21), in MYC:MAX. Put plainly: protein-binding microarray (anti-MAX antibody). The settings on record: PBM: 15 mM Tris-HCl pH 7.5, 100 mM KCl, 0.075% NP40, 7.5 mM beta-mercaptoethanol, 375 ng/ul BSA, 8 ng/ul poly(dA-dT):(dA-dT), 550 ng complex, 60 min, room …; high values mean tight binding; double strand, one strand shown; sequences stand for … in CCGGC…TTAATAGCTAAGATTACTATATCGACG
For the sequence TGACACTTGTTA, the binding signal (log2 normalized fluorescence) is 0.3.
As to TGATTGACTGTA, the binding signal (log2 normalized fluorescence) was -0.12.
On to TGATACGAGGTG, for which the binding signal (log2 normalized fluorescence) was found to be 0.129.
Then TGACGGTCTGTA, with 0.052; and TGATATTAAGTA, with -0.187.
Consider TGAACTAAGGTA, for which the binding signal (log2 normalized fluorescence) was determined as 0.0714.
Take TGAGCCCGTGTA: the binding signal (log2 normalized fluorescence) came out at 0.0147.
Then TGAAGATTTGTA, with -0.0356.
Consider TCACACGTGATA, for which the binding signal (log2 normalized fluorescence) is 0.75.
Take TGACACGATATA: the binding signal (log2 normalized fluorescence) amounted to 0.408.
Consider TGAAAGAGAGTA, for which the binding signal (log2 normalized fluorescence) was -0.0282.
In the case of TGAACATAAGTA, the binding signal (log2 normalized fluorescence) was 0.139.
As for TGAGTGGTAGTA, the binding signal (log2 normalized fluorescence) stood at 0.216.
For TCACACTCGGTA, the binding signal (log2 normalized fluorescence) was 0.334.
For TGAGTCAGCGTA, the binding signal (log2 normalized fluorescence) is 0.0477.
In the case of TGAAATAGCGTA, the binding signal (log2 normalized fluorescence) is -0.0799.
CGGCAAGTGGTA: the binding signal (log2 normalized fluorescence) turned out to be 0.258.
For TGACGGTCGGTA, the binding signal (log2 normalized fluorescence) amounted to 0.00871.
For the sequence TGAGATATAGTA, the binding signal (log2 normalized fluorescence) was -0.255.
Then TGAACCACTGTA, with 0.264; and TGATCGGACGTA, with -0.027; and TGAGTGGTCGTA, with 0.0867.
Then TGAAATGGTGTA, with 0.209; and TGACACTTGGTG, with 0.204; and TGAACAACCGTA, with 0.108.
For TGACATAACGTA, the binding signal (log2 normalized fluorescence) was determined as 0.171.
TGAAAATGTGTA: the binding signal (log2 normalized fluorescence) came to 0.286.
Then TGAGGCGTCGTA, with -0.00813; and TGAACAAGAGTA, with 0.0745; and TGACTTGATGTA, with 0.193.
In the case of TGAGCGTTTGTA, the binding signal (log2 normalized fluorescence) turned out to be 0.0822.
As to TGACGCCCGGTA, the binding signal (log2 normalized fluorescence) worked out at 0.231.
In the case of TGAGCCATAGTA, the binding signal (log2 normalized fluorescence) is -0.102.
TGAAATCATGTA: the binding signal (log2 normalized fluorescence) is 0.225.
Then TGATTGGGTGTA, with -0.0624; and TGACCCGTGTTA, with 0.364; and TGAGTTATGGTA, with -0.133.
TGACCCGTCGTA: the binding signal (log2 normalized fluorescence) was found to be 0.0664.
For the sequence TGAATCTGCGTA, the binding signal (log2 normalized fluorescence) amounted to 0.0452.
Regarding TGAGTCTTTGTA, the binding signal (log2 normalized fluorescence) is -0.289.
As for TGACTGACCGTA, the binding signal (log2 normalized fluorescence) was 0.145.
As to TGAGCTACGGTA, the binding signal (log2 normalized fluorescence) was -0.00753.
In the case of TGAATGGACGTA, the binding signal (log2 normalized fluorescence) amounted to 0.317.
As for TGACCGAGGGTA, the binding signal (log2 normalized fluorescence) worked out at 0.296.
Then TGATAACGTGTA, with 0.499.
Take CGGCACGTTGTA: the binding signal (log2 normalized fluorescence) turned out to be 0.562.
Then GGAGAAGTGGTA, with 0.0907; and TGACTCCCTGTA, with 0.242.
In the case of TGATGATTAGTA, the binding signal (log2 normalized fluorescence) was -0.151.
Take TGATATTCAGTA: the binding signal (log2 normalized fluorescence) amounted to 0.0713.
On to TGAACGGTCGTA, for which the binding signal (log2 normalized fluorescence) is -0.227.
Then TGATTGTACGTA, with 0.0238.
TGACCTGATGTA: the binding signal (log2 normalized fluorescence) was determined as 0.173.
In the case of TGAAGTCCTGTA, the binding signal (log2 normalized fluorescence) was -0.00573.
Take TGAACGGATGTA: the binding signal (log2 normalized fluorescence) came to 0.0491.
Then TGAAATAGGGTA, with -0.0659.
Then TGAAACTCGGTA, with -0.031.
For TGAGGACACGTA, the binding signal (log2 normalized fluorescence) was found to be 0.137.
Then TGATTGTCCGTA, with -0.146; and TGAGTCGTTGTA, with 0.0422; and TGATACCAGGTA, with 0.0486.
For TGACATTGAGTA, the binding signal (log2 normalized fluorescence) was 0.237.
Then TGATGATCCGTA, with 0.0332.
As for TGAGGTTTGGTA, the binding signal (log2 normalized fluorescence) was -0.0536.
CGACACGTGGGC: the binding signal (log2 normalized fluorescence) was 0.893.
Regarding TGAAGTCAAGTA, the binding signal (log2 normalized fluorescence) was determined as 0.0942.
As for TGATAGCCGGTA, the binding signal (log2 normalized fluorescence) was -0.147.
Turning to ATAGCTAAGATT, the binding signal (log2 normalized fluorescence) is 0.0482.
Then TGAGCGAAAGTA, with 0.02; and TGACCCCCTGTA, with 0.365; and TGACATGCTGTA, with 0.524.
For TGAGCAAAGGTA, the binding signal (log2 normalized fluorescence) stood at 0.026.
Then TGAGGAGTTGTA, with -0.0459; and TGATCGCTCGTA, with -0.0784.
On to TGACACGTACTA, for which the binding signal (log2 normalized fluorescence) was 0.373.
On to TGAAGCACAGTA, for which the binding signal (log2 normalized fluorescence) came to 0.202.
As for TGAGCTTCAGTA, the binding signal (log2 normalized fluorescence) is -0.201.
In the case of TGATCTCTAGTA, the binding signal (log2 normalized fluorescence) was -0.0718.
On to TGATACGCGGTA, for which the binding signal (log2 normalized fluorescence) stood at 0.121.
On to TGAAATAAGGTA, for which the binding signal (log2 normalized fluorescence) amounted to 0.0211.
Consider TGATTGGGCGTA, for which the binding signal (log2 normalized fluorescence) was -0.181.
Turning to TGACTATTGGTA, the binding signal (log2 normalized fluorescence) is -0.0597.
In the case of TGATTGATGGTA, the binding signal (log2 normalized fluorescence) was -0.0118.
Take TGAATCAGAGTA: the binding signal (log2 normalized fluorescence) worked out at 0.0753.
Then TGACTGGGAGTA, with -0.142; and TGAATATCAGTA, with 0.0287.
TGACCAGGTGTA: the binding signal (log2 normalized fluorescence) is 0.341.
As to TGAATCACAGTA, the binding signal (log2 normalized fluorescence) was -0.0142.
Then TGAGTATCTGTA, with -0.104; and TGATATAGAGTA, with -0.213.
Then TGAGCGCTGGTA, with 0.125; and TGACAATTCGTA, with 0.0308; and TGATGTAATGTA, with 0.000857.
Then TGTACCGTGGTA, with 0.275; and TGACATGCAGTA, with 0.219.
TGATATGACGTA: the binding signal (log2 normalized fluorescence) came to 0.0181.
Then TGGCACTTGGTT, with 0.185; and TGAGCGTACGTA, with -0.0291; and TGCCACGAGGAA, with 0.707.
Turning to TGACTTCCGGTA, the binding signal (log2 normalized fluorescence) was found to be 0.0704.
Regarding TGAAACAGTGTA, the binding signal (log2 normalized fluorescence) came out at 0.0867.
As to TGAAACTGGGTA, the binding signal (log2 normalized fluorescence) was -0.0496.
For TGAACAGTCGTA, the binding signal (log2 normalized fluorescence) was determined as 0.104.
For TGATGATCTGTA, the binding signal (log2 normalized fluorescence) stood at 0.114.
With TGAAAGATCGTA, the binding signal (log2 normalized fluorescence) is -0.0267.
For TGATTTCTCGTA, the binding signal (log2 normalized fluorescence) is -0.0646.
TGAGTCGAGGTA: the binding signal (log2 normalized fluorescence) is 0.0684.
Then TGAAACCTTGTA, with 0.0437; and TGATAAACGGTA, with -0.106; and TGAAGAAGGGTA, with -0.0575.
With TGAAGTTATGTA, the binding signal (log2 normalized fluorescence) was -0.0486.
With TGAGACGTGGTA, the binding signal (log2 normalized fluorescence) came to 0.502.
Regarding TGATAGTTTGTA, the binding signal (log2 normalized fluorescence) is -0.214.
Then TGACACGTCTTG, with 0.301; and TGACGGCATGTA, with 0.495.
TGAAGGTGTGTA: the binding signal (log2 normalized fluorescence) is 0.256.
Then TGACCTGAAGTA, with 0.159; and TGATGTAACGTA, with 0.116.
As to TGATGCTTAGTA, the binding signal (log2 normalized fluorescence) was -0.0553.
Turning to TGCCACGCGGAA, the binding signal (log2 normalized fluorescence) was determined as 0.651.
Turning to TGCTACGGGGTA, the binding signal (log2 normalized fluorescence) was 0.0135.
For TGATGTGCGGTA, the binding signal (log2 normalized fluorescence) was 0.226.
TGCGGCGTGGTA: the binding signal (log2 normalized fluorescence) turned out to be 0.399.
Consider TGACCAGATGTA, for which the binding signal (log2 normalized fluorescence) was found to be 0.338.
As to TGAGATGCCGTA, the binding signal (log2 normalized fluorescence) is 0.149.
Then TGACACGTGAGA, with 0.826.
In the case of TAACACCTGGCA, the binding signal (log2 normalized fluorescence) came to 0.625.
Turning to TGACCCGTTGTA, the binding signal (log2 normalized fluorescence) is 0.131.
For the sequence TGTCACGTTGTA, the binding signal (log2 normalized fluorescence) was 0.642.
In the case of TCCCACCTGGTA, the binding signal (log2 normalized fluorescence) amounted to 0.512.
With TGACGCGCTGTA, the binding signal (log2 normalized fluorescence) turned out to be 0.468.
For the sequence TGATTTAATGTA, the binding signal (log2 normalized fluorescence) was 0.0643.
For TGAATCATCGTA, the binding signal (log2 normalized fluorescence) is 0.0995.
In the case of TGAAAGGGAGTA, the binding signal (log2 normalized fluorescence) is 0.0508.
Then TGAGCATATGTA, with 0.395.
As to TGAAGAAATGTA, the binding signal (log2 normalized fluorescence) is 0.00236.
In the case of TGATATTTGGTA, the binding signal (log2 normalized fluorescence) was -0.137.
Take CCCCACGTGGTA: the binding signal (log2 normalized fluorescence) turned out to be 0.854.
TGATGGGTTGTA: the binding signal (log2 normalized fluorescence) was determined as 0.152.
Then TGCCGCGTGTTA, with 0.583.
Then TGAGTTAGCGTA, with -0.0921; and TGAACACAGGTA, with 0.43; and TGATCTCGGGTA, with 0.0794.
Turning to TGAGGTAATGTA, the binding signal (log2 normalized fluorescence) amounted to 0.138.
For TGACAGCCCGTA, the binding signal (log2 normalized fluorescence) amounted to 0.168.
For the sequence TTAAACGTGGTA, the binding signal (log2 normalized fluorescence) came to 0.608.
In the case of TGATCGTTTGTA, the binding signal (log2 normalized fluorescence) was -0.0191.
For the sequence TGATGCTCCGTA, the binding signal (log2 normalized fluorescence) came out at 0.0834.
For the sequence TGATGTATGGTA, the binding signal (log2 normalized fluorescence) was 0.123.
For the sequence TGAATAACAGTA, the binding signal (log2 normalized fluorescence) was 0.0502.
Turning to TGACACGTGAAT, the binding signal (log2 normalized fluorescence) was 0.712.
For the sequence TGACATGTGGAA, the binding signal (log2 normalized fluorescence) stood at 0.707.
TGAGACCGGGTA: the binding signal (log2 normalized fluorescence) was -0.145.
For the sequence TGACACGAGCTT, the binding signal (log2 normalized fluorescence) is 0.454.
Regarding TGAACCAATGTA, the binding signal (log2 normalized fluorescence) was found to be 0.186.
As for TGACGCATTGTA, the binding signal (log2 normalized fluorescence) turned out to be 0.286.
Take TGACTCAAAGTA: the binding signal (log2 normalized fluorescence) is -0.0171.
Then TGAGTATAAGTA, with -0.121; and AGATACGTGGTA, with 0.393.
Then TGAGACCACGTA, with 0.323; and TGAGGCTACGTA, with -0.0825; and TGAGGTCTGGTA, with 0.0604.
As for TGATGTGCCGTA, the binding signal (log2 normalized fluorescence) was 0.144.
For TGAAATTAGGTA, the binding signal (log2 normalized fluorescence) was found to be 0.0434.
For the sequence TGAGACCTGCTA, the binding signal (log2 normalized fluorescence) is -0.0388.
TGAACTACGGTA: the binding signal (log2 normalized fluorescence) is 0.0565.
Regarding TGATGATGCGTA, the binding signal (log2 normalized fluorescence) worked out at 0.112.
Then TGAAGTACCGTA, with 0.085; and TGAGGGGGAGTA, with 0.823.
As to TGACTTTGCGTA, the binding signal (log2 normalized fluorescence) was 0.207.
For TGGCACGTGGTG, the binding signal (log2 normalized fluorescence) is 0.954.
Regarding TGATGGCTAGTA, the binding signal (log2 normalized fluorescence) was 0.117.
For the sequence TGATTATGTGTA, the binding signal (log2 normalized fluorescence) amounted to 0.113.
As to TGAACGAAGGTA, the binding signal (log2 normalized fluorescence) was 0.0182.
On to TGATAATTCGTA, for which the binding signal (log2 normalized fluorescence) is -0.175.
